Source: paper PMC4336329 (PLoS ONE, 2015)
The whole screen tested about 310,000 compounds, of which about 2,200 (0.71%) showed an effect of 50% or more. Effects have a minus sign here. Some of the results follow.

These compounds were tested against human ether-à-go-go-related gene (hERG) potassium channel (human, UniProt Q12809) (assay: primary screen, population patch clamp on CHO cells stably expressing hERG).
Sequence of human ether-à-go-go-related gene (hERG) potassium channel (Q12809 whole entry, looked up): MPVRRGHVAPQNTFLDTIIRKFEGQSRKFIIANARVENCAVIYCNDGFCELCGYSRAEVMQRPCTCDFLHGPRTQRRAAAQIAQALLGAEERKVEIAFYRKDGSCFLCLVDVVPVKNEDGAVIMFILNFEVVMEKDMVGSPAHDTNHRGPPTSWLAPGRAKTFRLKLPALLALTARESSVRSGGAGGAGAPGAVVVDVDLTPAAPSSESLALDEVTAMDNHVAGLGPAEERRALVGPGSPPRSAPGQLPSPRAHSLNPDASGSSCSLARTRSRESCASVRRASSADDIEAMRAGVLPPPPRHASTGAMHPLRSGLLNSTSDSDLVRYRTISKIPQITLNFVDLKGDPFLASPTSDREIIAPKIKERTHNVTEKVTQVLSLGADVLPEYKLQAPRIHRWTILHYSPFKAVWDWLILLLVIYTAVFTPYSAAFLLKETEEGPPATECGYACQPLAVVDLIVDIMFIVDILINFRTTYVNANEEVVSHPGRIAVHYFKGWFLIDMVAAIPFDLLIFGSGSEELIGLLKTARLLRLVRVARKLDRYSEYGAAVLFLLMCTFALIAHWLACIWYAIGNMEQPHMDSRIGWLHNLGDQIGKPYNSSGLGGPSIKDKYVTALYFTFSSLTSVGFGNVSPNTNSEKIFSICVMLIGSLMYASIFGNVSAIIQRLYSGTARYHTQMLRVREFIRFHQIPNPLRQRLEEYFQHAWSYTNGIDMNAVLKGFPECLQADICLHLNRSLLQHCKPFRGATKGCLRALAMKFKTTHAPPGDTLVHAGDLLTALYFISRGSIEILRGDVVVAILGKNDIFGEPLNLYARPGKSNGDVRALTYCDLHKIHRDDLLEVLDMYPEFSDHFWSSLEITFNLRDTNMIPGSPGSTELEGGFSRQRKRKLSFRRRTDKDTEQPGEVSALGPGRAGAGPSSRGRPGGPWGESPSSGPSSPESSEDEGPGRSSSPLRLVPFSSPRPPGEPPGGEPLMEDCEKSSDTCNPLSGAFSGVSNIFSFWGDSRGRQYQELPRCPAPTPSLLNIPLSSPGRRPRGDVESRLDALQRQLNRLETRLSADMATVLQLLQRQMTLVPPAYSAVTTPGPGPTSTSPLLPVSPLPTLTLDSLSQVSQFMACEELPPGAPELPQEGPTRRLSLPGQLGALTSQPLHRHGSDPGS

| SMILES | hERG current change (%, negative = inhibition) at 1uM |
| --- | --- |
| COc1cccc(/C=N/n2c(C)nc3ccccc3c2=O)c1O | 9.85% |
| COC(=O)CCC(=O)OC1(C)C(=O)C2=CN(C(CO)CO)C(c3ccc(OC)cc3)=CC2=C(Br)C1=O (centres unmarked) | 4.62% |
| O=C(NCc1ccccc1Cl)C1CCCN1C(=O)NC1CCCCC1 (centres unmarked) | 13.1% |
| O=C(Nc1ccc(Oc2ccccc2)nc1)C1CCCCN1Cc1cccc(OCCO)c1 (centres unmarked) | 13.2% |
| CCC(C)NC(=O)C(Cc1ccccc1)NS(=O)(=O)c1cccc2nsnc12 (centres unmarked) | 9.24% |
| Cn1nc(-c2ccc(N3CCN(CCO)CC3)c([N+](=O)[O-])c2)c2ccccc2c1=O | 17.3% |
| CN(/C=C/C(=C/C=[N+](C)c1ccccc1)OCCCS(=O)(=O)[O-])c1ccccc1 | 6.44% |
| COc1ccc(C(CC(=O)O)n2cnnn2)cc1.Cl (centres unmarked) | 5.96% |
| O=C(CCN1C(=O)S/C(=C\c2ccccc2)C1=O)Nc1ccc(O)cc1C(=O)O | 19.2% |
| CC1CCCN(C(=O)COC(=O)c2ccc3[nH]c4c(c3c2)CCCC4)C1 (centres unmarked) | 13.8% |
| C=CCNC(=O)COc1cc(C)cc(C)c1C | 7.31% |
| C/C(CC(=O)Nc1c(C)cc(C)cc1C)=N\NC(=O)c1cnccn1 | 15% |
| Cc1ccc(N2CCN(S(=O)(=O)c3ccc4oc(=O)ccc4c3)CC2)cc1Cl | 8.8% |
| O=C(NCC1CCCO1)c1nn2c(c1Cl)NC(c1ccc(F)cc1)CC2C(F)(F)F (centres unmarked) | -2.01% |
| O=C(c1cc(S(=O)(=O)N2CCN(c3ccccc3)CC2)ccc1Cl)N1CCCC(C(F)(F)F)C1 (centres unmarked) | -3.84% |
| O=C(NCc1ccc2c(c1)OCO2)C1CC(=O)N(C2CCCC2)C1 (centres unmarked) | 10.1% |
| CC(C)(C)N(Cc1ccccc1)C(=O)COC(=O)c1ccc(Br)o1 | 10.9% |
| CCN(C(=O)CN1CCN(c2ccccc2OC)CC1)c1c(N)n(Cc2ccccc2)c(=O)[nH]c1=O | 11.9% |
| COc1ccc(NC(=O)CSc2nnnn2C2CCCC2)cc1 | 23.6% |
| CC(=O)Nc1nnc(S(=O)(=O)N2CCN(c3ccc(Cl)cc3[N+](=O)[O-])CC2)s1 | 9.84% |
| C/C(=N\NC(=O)C(N)=O)c1cccc([N+](=O)[O-])c1 | 11.8% |
| CCOC(=O)c1c(C)[nH]c(C(=O)CN2C(=O)C(=O)N(CC(C)C)C2=O)c1C | 12.8% |

| SMILES | hERG current change (%, negative = inhibition) at 1uM |
| --- | --- |
| CCN(C(=O)c1cn(C)c(=O)c2cc(OC)c(OC)cc12)c1ccccc1C | -4.75% |
| O=C(Nc1ccc(S(=O)(=O)NCc2ccco2)cc1)c1ccncc1 | 8.16% |
| CC(=O)N1CCc2cc(S(=O)(=O)Nc3ccc(C)cc3C)ccc21 | 9.62% |
| COc1ccc2cc(CN(Cc3cccnc3)Cc3nnnn3Cc3ccccc3)c(=O)[nH]c2c1 | -49.3% |
| COc1cc(C(=O)OCCC(C)C)cc(OC)c1O | 1.43% |
| CC(C)Cn1c(=O)n(C)c(=O)c2[nH]cnc21 | 16.4% |
| COCCCNC(=O)C1c2ccccc2Oc2ccccc21 | 8.03% |
| Nc1[nH][nH]c(=O)c1N=Nc1cccc(Cl)c1 | 14% |
| Cc1ccc(N2CCN(C(=O)c3cc(C(=O)c4ccccc4C)c[nH]3)CC2)c(C)c1 | 5.8% |
| CN(CCC#N)C(=O)CSc1nnc(-c2c[nH]c3ccccc23)o1 | 3.48% |
| CC1(C)CC(=O)C2=C(C1)OC(=O)CC2c1cccs1 (centres unmarked) | 5.96% |
| COc1ccccc1NC(=O)Cn1c(=O)c(N(C)C)c(N)n(C)c1=O | 13.2% |
| Cc1cc(C)cc(OCC(=O)OC/C(O)=C(\C#N)c2nc3ccccc3[nH]2)c1 | 18.7% |
| CC(C)c1ccc(/C=C/C(=O)CCC(=O)O)cc1 | 7.28% |
| CC1CC(NC(=O)CC#N)CC(C)(C)C1 (centres unmarked) | 12.6% |
| C#CCOc1ccccc1/C=N/NC(=O)c1ccccc1OCc1ccccc1 | 12.6% |
| CCc1cc(C(=O)c2ccc(OC)cc2)c(N)s1 | 11.4% |
| COCCNC(=O)c1cn(Cc2c(F)cccc2Cl)nn1 | 16.2% |
| Cc1cccc(-c2ncc(CN3CCN(C4CCCC4)C(CCO)C3)cn2)c1 (centres unmarked) | -15.1% |
| CC(NC(=O)c1cc(COc2cccc(C(F)(F)F)c2)on1)c1nccs1 (centres unmarked) | 4.87% |
| CC(NC(=O)c1ccccc1)C(=O)OCC(=O)c1c(N)n(C)c(=O)n(C)c1=O (centres unmarked) | 2.27% |
| O=c1cc(N2CCCC2)[nH]c(=O)n1-c1ccc(Cl)cc1 | 6.13% |
